# Experimental data as given in article PMC4336329 (PLoS ONE, 2015).
# In all, about 310,000 compounds went through this assay and about 2,200 (0.71%) showed an effect of 50% or more. The effect is printed as a negative number. The list shows a part of the results.
# Biological target: human ether-à-go-go-related gene (hERG) potassium channel (human, UniProt Q12809)
# Test: primary screen, population patch clamp on CHO cells stably expressing hERG
# Chain of human ether-à-go-go-related gene (hERG) potassium channel (Q12809 whole entry, looked up): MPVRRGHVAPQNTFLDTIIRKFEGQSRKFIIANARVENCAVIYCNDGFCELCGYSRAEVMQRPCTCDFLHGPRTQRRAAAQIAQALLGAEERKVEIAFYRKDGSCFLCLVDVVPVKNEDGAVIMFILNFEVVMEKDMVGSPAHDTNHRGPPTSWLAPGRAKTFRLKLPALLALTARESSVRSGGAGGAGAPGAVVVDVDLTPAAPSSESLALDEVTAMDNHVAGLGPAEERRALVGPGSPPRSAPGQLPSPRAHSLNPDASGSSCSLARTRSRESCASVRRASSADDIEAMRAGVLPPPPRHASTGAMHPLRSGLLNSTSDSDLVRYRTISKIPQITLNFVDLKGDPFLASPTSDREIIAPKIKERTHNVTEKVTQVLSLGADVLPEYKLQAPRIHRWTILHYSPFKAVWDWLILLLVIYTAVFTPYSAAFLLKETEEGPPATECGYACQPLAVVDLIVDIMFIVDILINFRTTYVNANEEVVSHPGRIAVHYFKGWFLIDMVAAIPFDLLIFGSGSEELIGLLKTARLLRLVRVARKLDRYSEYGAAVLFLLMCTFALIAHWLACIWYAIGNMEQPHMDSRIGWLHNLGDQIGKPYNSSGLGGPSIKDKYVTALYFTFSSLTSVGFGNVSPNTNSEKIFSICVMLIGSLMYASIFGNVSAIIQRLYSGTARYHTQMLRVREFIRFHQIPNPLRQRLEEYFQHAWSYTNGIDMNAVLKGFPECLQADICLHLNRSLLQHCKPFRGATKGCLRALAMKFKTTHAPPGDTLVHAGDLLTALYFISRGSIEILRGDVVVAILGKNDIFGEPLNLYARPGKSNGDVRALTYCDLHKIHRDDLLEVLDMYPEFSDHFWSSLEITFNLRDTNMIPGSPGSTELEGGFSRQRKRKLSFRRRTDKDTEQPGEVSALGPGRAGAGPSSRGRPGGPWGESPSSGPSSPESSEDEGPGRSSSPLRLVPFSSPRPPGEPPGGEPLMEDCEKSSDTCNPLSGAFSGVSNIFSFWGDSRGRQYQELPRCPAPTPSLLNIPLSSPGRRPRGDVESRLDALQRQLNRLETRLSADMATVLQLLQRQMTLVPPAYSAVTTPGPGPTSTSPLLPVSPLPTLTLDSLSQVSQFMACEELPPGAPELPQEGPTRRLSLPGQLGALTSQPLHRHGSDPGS
row,Compound,"hERG current change (%, negative = inhibition) at 1uM [%]"
1,CCOC(=O)c1cnc(SCc2nc(N)nc(Nc3ccc(F)cc3)n2)nc1N,0.967
2,Cc1ccc(/C=C(/C#N)C(=O)NC(C)c2ccccc2)o1 (stereo not drawn),9.29
3,Cc1ccc(NC(NC(=O)c2ccccc2[N+](=O)[O-])C(Cl)(Cl)Cl)cc1 (stereo not drawn),2.88
4,Cc1c(C(c2ccc(F)cc2)c2c(O)c3ccccc3oc2=O)c(=O)n(-c2ccccc2)n1C (stereo not drawn),-3.56
5,COc1ccc(N2C(N)=C(C#N)C(c3cccnc3)C3=C2CC(C)(C)CC3=O)cc1 (stereo not drawn),11.6
6,Cc1ccc(-c2nnc(SCc3ccc(C#N)cc3)n2Cc2ccco2)cc1,-19.2
7,Cc1cccc(OCC(=O)Nc2ccc(NC(=O)c3ccco3)c(C)c2)c1,1.81
8,Cc1cc(C)c(NC(=O)CSCc2c(C)noc2C)c(C)c1,17.1
9,CCOC(=O)N1CCN(C(=O)c2ccc(Cl)c(NC(=O)c3cccs3)c2)CC1,-1.68
10,COc1ccc(-c2csc3ncnc(N4CCN(CCO)CC4)c23)cc1,12.7
11,Cl.O=C1C2CCCC1C(N1CCCCC1)CC2 (stereo not drawn),6.91
12,O=C(Nc1ccc(F)cc1F)c1c(C(F)(F)F)ccnc1Oc1cccc(C(F)(F)F)c1,12
13,COc1ccccc1/C=C/C(=C1/C(=O)N(c2ccccc2)N=C1C)c1ccc(C)cc1,-1.9
14,COc1ccc(NC(=O)C2CCCNC2)cc1OCC(C)C (stereo not drawn),12
15,COC(=O)c1ccc2[nH]c(CO)c(-c3ccccc3)c2c1,13.2
16,NS(=O)(=O)c1ccc(NC(=O)c2ccc(S(=O)(=O)N3CCc4ccccc43)cc2)cc1,4.47
17,COc1cnn(-c2ccc(Br)cc2)c(=O)c1SCc1ccccc1,-14
18,Cc1cc(N2C(=O)C(=O)/C(=C(/O)c3ccccc3)C2c2cccs2)no1 (stereo not drawn),13.1
19,CN(CCCNC(=O)CSc1cc(=O)n(C)c2ccc(Cl)cc12)Cc1ccccc1,-16.3
20,O=C1CC2(CCN(C(=O)c3c(F)cccc3F)CC2)Oc2ccccc21,-3.63
21,CC(C)NC(=O)c1ccccc1NC(=O)C1CC(=O)N(C(C)C)C1 (stereo not drawn),29.3
22,CC1(C)C(c2cccs2)=[N+]([O-])C2(CCCCC/C2=N\NC(N)=O)N1O (stereo not drawn),7.92
23,Cn1c(=O)cc(OCC(=O)NC2CCCCC2)c2ccccc21,8.77

row,Compound,"hERG current change (%, negative = inhibition) at 1uM [%]"
1,Fc1ccc(-n2nnc(-c3nccs3)n2)cc1,7.22
2,COc1cccc(N2CCN(Cc3cccnc3)CC2)c1,0.44
3,CCOC(=O)c1c(NC(=O)CCc2ccc(CC)o2)sc(C)c1C,15.6
4,Clc1ccccc1Nc1ncnc2c1nnn2Cc1ccccc1,5.79
5,CSC1=NC(C)(C)C=C(/C=C/c2c(Cl)cccc2Cl)N1,10.9
6,CCCn1c(SCC(=O)NC2CCCCC2)nnc1-c1ccccn1,-2.51
7,O=C(O)c1cccc(CSc2nc(-c3ccc(Cl)cc3)cc(C(F)(F)F)n2)c1,-2.91
8,CC(=O)Nc1ccc(S(=O)(=O)N2CCN(C3CCCCCCC3)CC2)cc1.O=C(O)C(=O)O,10.3
9,CCn1c(SCC(=O)Nc2ccc(C)cc2)nc2nc3c(cc2c1=O)COC(C)(C)C3,-76.5
10,CN1CCc2cc3c(c4c2C1Cc1ccccc1-4)OCO3 (stereo not drawn),2.95
11,O=C(NCc1ccccn1)C1CCN(S(=O)(=O)c2cc(Cl)ccc2Cl)CC1,8.99
12,O=C(CCC(=O)N1CCOc2ccccc21)NCCCN1CCOCC1,13.3
13,COc1cc2c(cc1OC)C(C)N(C(=O)c1c(-c3ccccc3)noc1C)CC2 (stereo not drawn),14.1
14,COc1ccc([C@@H]2CC(=O)c3c(O)cc(O)cc3O2)cc1O,8.29
15,Cc1cc(C)c(NS(=O)(=O)c2ccc3c(c2)NC(=O)CC(=O)N3)c(C)c1,11.7
16,CSCCC(=O)N(C)CC1CCN(CCc2cccc(C(F)(F)F)c2)CC1,-27.3
17,COc1ccc2[nH]cc(C(=O)CN3CCCCC3)c2c1,9.38
18,COc1ccc(Br)cc1/C=N/NC(=O)c1ccc(OC)c(OC)c1,12.6
19,CCC(C)C(=O)Nc1ccc(OC)cc1OC (stereo not drawn),14.4
20,CCOC(=O)COn1c(=O)c(-c2ccc(OCC)cc2)[n+]([O-])c2ccccc21,15.1
21,CC(=O)c1cccc(NC(=O)CCN2C(=O)C3C4CCC(C4)C3C2=O)c1 (stereo not drawn),0.223
22,CCCCC(=O)O[C@H]1CC[C@H]2[C@@H]3CCc4cc(O)ccc4[C@H]3CC[C@]12C,6.8
23,COc1ccc(C(=S)N2CCOCC2)cc1OC(=O)c1cc(OC)c(OC)c(OC)c1,14.5

row,Compound,"hERG current change (%, negative = inhibition) at 1uM [%]"
1,Cc1noc(C)c1COC(=O)c1ccccc1Oc1ccccc1,21.6
2,C=CCn1c(N)c(C(=O)NCC2CCCO2)c2nc3ccccc3nc21 (stereo not drawn),11.5
3,COc1ccc(-c2nn(-c3ccccc3)cc2C(=O)Nc2nccs2)cc1OC,7.02
4,Cc1cccc(C)c1OCC(=O)N/N=C/c1cccnc1,4.85
5,CSc1nc(N)nc(C(C)C)n1,9.8
6,Cc1[nH]nc(N2CCCCCC2)c1[N+](=O)[O-],16.7
7,CCN(C(=O)COC(=O)c1cc(=O)[nH]c2ccccc12)C1CCS(=O)(=O)C1 (stereo not drawn),12.2
8,COC(=O)c1ccc(N2CCN(c3ccccc3)CC2)c(N)c1,12.9
9,CCC(NC(=O)NC1=NCCS1)(C(F)(F)F)C(F)(F)F,6.93
10,CCOC(=O)C(C)Sc1nc2c(cnn2-c2ccc(C)cc2)c(=O)[nH]1 (stereo not drawn),6.98
11,Cn1nc(C(F)(F)F)c(C(=O)Nc2ccc(F)cc2)c1Cl,13.3
12,O=C(Nc1ccc(NC(=O)c2cc([N+](=O)[O-])ccc2N2CCOCC2)cc1)c1cccs1,2.89
13,N#Cc1sc(NCc2cccc(Cl)c2)nc1Cl,4.66
14,O=C(COc1ccc(Br)cc1Cl)N1CCN(c2ccccn2)CC1,4.01
15,O=C(NCCC1CCCCN1S(=O)(=O)c1ccccc1)C(=O)Nc1ccccc1F (stereo not drawn),11.4
16,CN(CCC1CCOCC1)Cc1nc(Cc2ccccc2F)no1,11
17,CCOC(=O)c1nn(-c2cccc(C)c2)cc1C(=O)c1ccccc1,-0.722
18,Cn1nc(C(=O)OCCN2C(=O)c3ccccc3C2=O)c2ccccc2c1=O,7.29
19,Cc1cc(C)cc(C(=O)N(c2ccccn2)C(C)c2ccco2)c1 (stereo not drawn),12.9
20,CN(C)N1C(N)=C(C#N)C(c2cccs2)C2=C1CC(C)(C)CC2=O (stereo not drawn),8.64
21,CCn1ncc(/C=C/C(=O)c2ccccc2)c1C,-0.474
22,CCCCOc1ccc(S(=O)(=O)N2CCN(c3ccc(N4CCN(CC)CC4)nn3)CC2)cc1,15.2
23,CS(=O)(=O)N(CC(=O)Nc1ccccc1-c1ccccc1)c1ccccc1,16.1

row,Compound,"hERG current change (%, negative = inhibition) at 1uM [%]"
1,CCCCC(=O)NC(=S)Nc1ccc(S(=O)(=O)N2CCCC2)cc1,-2.76
2,Cc1c(NC(=O)C(C)NCC2CCCO2)c(=O)n(-c2ccccc2)n1C (stereo not drawn),10.5
3,COc1ccc(NC2=Nc3cccc4cccc2c34)cc1OC,10.8
4,Cc1cccc(NC(=O)C2CCC(CNC(=O)[C@@H]3Cc4ccccc4CN3)CC2)c1 (stereo partly drawn),11.2
5,O=C(N/N=C/c1cccc(F)c1)c1c(O)c2ccccc2[nH]c1=O,12.8
6,CCCCN(CC)C(=O)c1n[nH]c(=O)c2ccccc12,2.17
7,COc1ccccc1C(=O)NCCC(=O)Nc1ccc(S(=O)(=O)N2CCC(C)CC2)cc1,7.93
8,COc1ccc(NC(=O)c2cc(-c3ccco3)nc3ccccc23)cc1,12.1
9,Cc1cc(C)nc(/N=C(\N)Nc2ccccc2-c2ccccc2)n1,-12.7
10,O=C(O)CC/C(=N\Nc1ccc([N+](=O)[O-])cc1)c1ccccc1,16.5
11,Cc1cccc2sc(NC(=O)CN(C)S(=O)(=O)c3cccs3)nc12,4.9
12,CCOc1ccc(C(=O)NCC(=O)Nc2ncccc2C)cc1OCC,15.4
13,COCc1cc(C)nc(N2CCOCC2)c1C#N,9.51
14,COc1ccc(NS(=O)(=O)c2cccc(C(=O)NCC3(N4CCOCC4)CCCCC3)c2)cc1,11
15,CCc1ccccc1OCC(=O)OCC(=O)c1c(N)n(C)c(=O)n(C)c1=O,0.475
16,Cn1cccc1/C=C1\SC(=S)N(CC(=O)O)C1=O,10.6
17,COc1cccc(COc2ccc3ccc(=O)oc3c2)c1,10.6
18,O=C(NCCCSc1ccccc1)c1cccnc1,0.92
19,COc1ccc(NC(=O)CCOc2ccccc2)c(OC)c1,-5.98
20,CCCCOc1ccc(CN2CCSCC2)cc1,15.2
21,Cn1nc(C(=O)NNC(=O)c2ccc(Cl)c(S(N)(=O)=O)c2)c2ccccc2c1=O,13.2
